Drawing on patent publication US20160340421A1 (Regeneron, published 2016), this text covers Kd and T1/2 for 2 molecules.

The target in assay [1] is T1, hGDF11 homodimer (human, UniProt O95390 299-407).
T1 sequence (looked up): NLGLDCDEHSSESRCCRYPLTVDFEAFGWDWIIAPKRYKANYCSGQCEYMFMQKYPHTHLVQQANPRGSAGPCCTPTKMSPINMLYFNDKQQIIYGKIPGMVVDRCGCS
Put plainly: SPR Biacore T100, captured on anti-hFc, 37°C. Here is the method:
(§1) Additional antigen binding experiments were conducted in which GDF8 and GDF11 were applied over a surface of selected anti-GDF8 antibodies and control antibodies at 25° C. and 37° C. Equilibrium dissociation constants (KD values) for antigen binding to selected antibodies were determined by surface kinetics using a real-time biosensor surface plasmon resonance assay (BIACORE™ T100). […] Various concentrations (2.5-0.625 nM, 2-fold dilutions) of hGDF8 homodimer or hGDF11 homodimer (or in some experiments, Activin A) were injected over the captured antibody surfaces, and antigen-antibody binding and dissociation were monitored in real time. Kinetic analysis was performed to calculate KD, dissociation rate constants (kd), association rate constants (ka) and half-life of antigen/antibody complex dissociation. (NB=no binding observed).
For orientation: Surface plasmon resonance follows binding to a sensor surface in real time, without labels.

The target in assay [2] is T2, Human GDF8 homodimer (mature human Growth and Differentiation Factor-8) (human, UniProt O14793 267-375).
T2 construct: also called hGDF8; myostatin
T2 sequence: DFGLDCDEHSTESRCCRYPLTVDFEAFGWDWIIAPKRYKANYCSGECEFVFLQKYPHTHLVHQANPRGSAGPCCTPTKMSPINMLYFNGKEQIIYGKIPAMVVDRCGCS
The experiment in a line: SPR Biacore T100, captured on anti-hFc, 37°C. Here is the method: as §1

A further assay has as its target T3, Activin A (UniProt P08476 311-426).
T3 sequence (looked up): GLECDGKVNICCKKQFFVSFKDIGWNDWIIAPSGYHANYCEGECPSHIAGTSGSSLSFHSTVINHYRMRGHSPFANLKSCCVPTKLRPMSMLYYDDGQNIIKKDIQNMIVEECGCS
The experiment in a line: SPR Biacore T100, captured on anti-hFc, 25°C. Here is the method:
as §1

Assay [3] concerns the target T1, hGDF11 homodimer. Put plainly: SPR Biacore T100, captured on anti-hFc, 25°C. On the procedure: as §1
Assay [4] has as its target T2, Human GDF8 homodimer (mature human …). Put plainly: SPR Biacore T100, captured on anti-hFc, 25°C. On the procedure:
as §1

Positions count from the first letter of the chain named. Numbers in names are those of the source.

B1: Control III: ActRIIB-Fc fusion construct (Fc fusion)
chain: EAETRECIYYNANWELERTNQSGLERCEGEQDKRLHCYASWANSSGTIELVKKGCWLDDFNCYDRQECVATEENPQVYFCCCEGNFCNERFTHLPEAGGPEVTYEPPPTAPSG[sequence of human IgG1 Fc not given]
notes: also called ActRIIB-hFc [A64]
One may read the Kd as a measure of binding affinity in units of concentration. The low end stands for a tighter complex, the high end for a looser complex. On to B1, for which the dissociation constant (Kd) with hGDF11 homodimer [1] is 9.92 pM; in assay [2], 6.4 pM; in the assay with Activin A, 8.5 pM; with hGDF11 homodimer [3], 23.8 pM; in assay [4], 30.7 pM. The T1/2 with hGDF11 homodimer [1] is 0.883 h; in assay [2], 1.73 h; with Activin A, 3.27 h; with hGDF11 homodimer [3], 2.2 h; in assay [4] it was 1.85 h.

B2: Control IV: variant ActRIIB-Fc fusion construct (Fc fusion)
chain: B1 chain with A42R
notes: identical to Control III except A64R; also called ActRIIB-hFc [R64]
On to B2, for which the values for the Kd (with Activin A; in the assay with hGDF11 homodimer [3]; in assay [4]) were 3 pM, 3 pM and 21.3 pM, respectively. Besides, the T1/2 in the assay with Activin A was 7.32 h; with hGDF11 homodimer [3], 3.85 h; in assay [4] it was 3.97 h.
